Measurements taken from the supplement of paper PMC3334620.
The full ranking holds about 33,000 sequences; the median of “E-score (-0.5 to 0.5)” is about -0.041, and the highest 2% start at about 0.37. Some of the results follow.

biological target: T1, Ecm22 (UniProt Q05958); test: PBM E-score (8-mer binding enrichment) (E-score (-0.5 to 0.5)); higher = stronger / more preferred TF binding; most listed sequences are background and not binding sites; conditions: protein concentration: 200 nM; construct: GST-full length
T1 sequence: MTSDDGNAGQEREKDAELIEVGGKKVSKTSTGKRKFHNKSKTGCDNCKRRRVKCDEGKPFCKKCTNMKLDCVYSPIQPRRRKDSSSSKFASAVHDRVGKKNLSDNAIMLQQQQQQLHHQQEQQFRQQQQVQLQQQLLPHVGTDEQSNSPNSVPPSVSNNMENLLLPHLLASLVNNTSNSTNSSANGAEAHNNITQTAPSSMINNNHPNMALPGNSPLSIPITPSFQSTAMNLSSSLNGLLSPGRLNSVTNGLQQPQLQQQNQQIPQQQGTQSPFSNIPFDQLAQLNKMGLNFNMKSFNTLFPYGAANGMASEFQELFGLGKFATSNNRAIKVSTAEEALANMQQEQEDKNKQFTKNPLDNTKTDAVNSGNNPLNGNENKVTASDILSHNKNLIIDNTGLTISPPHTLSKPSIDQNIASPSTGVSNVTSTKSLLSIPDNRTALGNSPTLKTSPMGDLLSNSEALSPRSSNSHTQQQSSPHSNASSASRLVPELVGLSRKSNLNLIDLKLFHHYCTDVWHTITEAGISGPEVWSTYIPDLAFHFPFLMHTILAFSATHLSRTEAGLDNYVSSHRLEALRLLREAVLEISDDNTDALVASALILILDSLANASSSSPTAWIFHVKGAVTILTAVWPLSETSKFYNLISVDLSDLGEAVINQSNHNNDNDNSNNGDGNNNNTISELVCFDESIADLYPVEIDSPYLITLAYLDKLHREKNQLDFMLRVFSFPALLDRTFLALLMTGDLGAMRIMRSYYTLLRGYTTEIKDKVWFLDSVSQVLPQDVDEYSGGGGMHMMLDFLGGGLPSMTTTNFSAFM
Method in brief: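 GST-tagged yeast TFs (full-length or DNA-binding domain) were made by PURExpress in vitro transcription/translation and applied at about 100-200 nM to universal all-10-mer Agilent arrays. The arrays were made double-stranded by primer extension, on fresh or once-stripped slides. Bound protein was detected with fluorescent anti-GST, and scans were normalised with masliner. Each ungapped eight-base word, pooled with its reverse complement, received an E-score (modified Wilcoxon-Mann-Whitney statistic) from the Universal PBM Analysis Suite.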

Sequence | PBM E-score
GTGCGGTA | 0.103
CTTACTCA | -0.278
AGTAGAGC | -0.2
AGCTCAAT | -0.1
CTGTGGTC | -0.154
AGCATTAA | 0.0992
AAACCCCA | -0.183
ACGCGCGC | 0.224
CTATCAGA | -0.0322
AGGCTGGG | -0.263
ACCTCTAA | -0.197
AATACATG | 0.00214
CGATATTC | 0.0427
TGTATTAA | 0.0318
ACGACCAG | 0.319
ATAGACTG | -0.136
CGAAACTC | 0.175
AAGGATCT | -0.231
CCGGAACG | 0.445
AGCAGGAA | -0.113
CTGTGATA | -0.112
ATCCGAAT | 0.265

Sequence | PBM E-score
CGTCGTCA | 0.0778
TCGAACCA | -0.029
GCAAGAGA | -0.102
ACCGATTC | 0.127
GCTCGTAC | 0.486
GGCGGTTA | 0.033
GAATCATC | 0.0775
CATCTGAA | -0.108
AGTCAGGC | -0.182
AAGGATAA | -0.0836
GCTTGACC | -0.101
GGAAGCGA | 0.227
ACCGGCTA | -0.0846
AAAGGAGA | -0.219
ATGTCCGG | -0.164
AGAAACGC | -0.0375
GGCAGGTA | -0.0373
CCAAGGTA | -0.0792
AAAGACTC | -0.228
CCATGCCG | -0.0818
GTGTTAAA | 0.115
ATATTAGA | -0.0362

Sequence | PBM E-score
ATATCGTA | 0.413
GTTAGGTA | 0.156
AAGGACAG | -0.127
CTGCGAAC | 0.116
AATGGAGG | -0.264
AGATATAC | 0.262
ACAGGAGG | -0.122
GCGACGGA | 0.124
ATAGAGCC | 0.102
ACAACTAC | -0.138
GTAGTAAA | -0.0594
GTCTTCAC | -0.097
CTATCAAG | -0.1
GGGGCCTA | -0.363
ATAATTAC | 0.00166
ACGATAAT | 0.309
ACATAATG | -0.0251
GTCTTCCA | -0.358
CGCTATAG | -0.0678
ATCCGCAG | -0.0244
GCACGTAA | -0.0691
CCCCGCAC | 0.0767

Sequence | PBM E-score
AATGTAAC | -0.126
GGAGAGGA | -0.31
AGCAAATC | 0.00098
CCAATCCG | 0.0601
AGGGTCAC | -0.217
TAAATGTA | -0.0523
GAGGGTTA | -0.0446
CTCGAAGA | -0.124
ATCTAGAC | 0.016
GTCTGAGA | -0.0659
CATCTCAA | -0.184
GACTTCCA | -0.246
AAATCTCA | 0.0114
CAGAATAC | 0.0856
TGACCGCA | -0.125
CGCTCAGC | 0.189
CGAGTGAA | 0.245
GAAATGTA | 0.00436
CGTCTGCA | -0.00416
TGAATTCA | -0.0829
